{"source": "PubChem BioAssay AID624171", "about": "(National Center for Advancing Translational Sciences (NCATS), 2012)", "note": "In all, about 410,000 compounds went through this assay and about 1,200 (0.29%) were called active. Inconclusive results, whose numbers are uncertain, are shown with a selection of clear calls. Calls come from the whole dose curve; as a rule, active = well fitted activation curve with a large enough effect; inconclusive = small, poorly fitted or top-dose-only effect; inactive = flat fitted curve, though single readings scatter. Potencies beside an inconclusive call are fits to weak or partial responses and may not hold up. Potency is the fitted concentration of half-maximal effect; tags give direction and shape of the fitted curve.", "data": [{"test": "qHTS of Nrf2 Activators; note: nearly all actives have a fitted effect of over 65% in size; for activation: % of control where 0% means no effect", "details": "AREc32 ARE-luciferase reporter (MCF7-derived line), luminescence, 24 h; activation: at 46.1 µM (top of the series)", "how_it_was_run": "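ARE activation measured as luciferase luminescence (Steady-Glo, 30 min RT) in AREc32_Fluc cells after 24 hr compound exposure at 37 deg C, 5% CO2; cells seeded overnight at 1000/well in OPTI-MEM, 5% FBS.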", "values": [{"smiles": "COc1ccc(C2=CC(c3c(C)nn(-c4ccccc4)c3Cl)n3nnnc3N2)cc1OC", "note": "(configuration not stated)", "Potency": "inconclusive: 14.1 µM [activator, partial curve, poor fit]"}, {"smiles": "Cc1cc2c(cc1C)N(C(=O)CCl)CCN2C(=O)CCl", "Potency": "active: 11.2 µM"}, {"smiles": "COc1ccc2c(c1)-c1c(sn(-c3ccccc3)c1=S)C(C)(C)N2", "activation": "inactive: 4.65%"}, {"smiles": "O=C1C=CC(n2cc(F)c(=O)[nH]c2=O)O1", "note": "(configuration not stated)", "Potency": "active: 25.1 µM"}, {"smiles": "Cc1ccc(CNS(=O)(=O)c2c(C)nc3sc(C)cn3c2=O)cc1", "activation": "inactive: -0.0906%"}, {"smiles": "CCOC(=O)c1cc(C)n(CC2CCC(C(=O)Nc3cccc(C(C)=O)c3)CC2)c1C", "note": "(configuration not stated)", "activation": "inactive: 0.879%"}, {"smiles": "Cc1ccccc1/C=C1\\C(=O)Nc2ccc(F)cc21", "Potency": "inconclusive: 2.51 µM [activator, full curve, poor fit]"}, {"smiles": "CCOc1ccc(S(=O)(=O)c2cc3cccc(OCC)c3oc2=O)cc1", "Potency": "active: 4.47 µM"}, {"smiles": "CC1=C(C(=O)Nc2ccccc2)C(C(C)C)n2nc(SCc3ccccc3C)nc2N1", "note": "(configuration not stated)", "activation": "inactive: -0.188%"}, {"smiles": "CCSc1nnc(NC(=O)c2ccccc2)s1", "Potency": "inconclusive: 14.1 µM [activator, single point]"}, {"smiles": "Cc1ccc(-c2nnc(NC(=O)c3ccc([N+](=O)[O-])o3)o2)c(C)c1", "Potency": "active: 7.08 µM"}, {"smiles": "CCOC(=O)N1CCN(CCC(=O)c2ccc(OC)cc2)CC1", "Potency": "inconclusive: 12.6 µM [activator, single point]"}, {"smiles": "Nc1ccccc1SC(CC(=O)c1ccccc1)c1cccc([N+](=O)[O-])c1", "note": "(configuration not stated)", "Potency": "active: 5.01 µM"}, {"smiles": "Cc1[nH]c2ccccc2c1/C=C/C(=O)c1ccccc1", "Potency": "inconclusive: 11.2 µM [activator, partial curve, poor fit]"}, {"smiles": "NNC(=O)C=C1CCN(c2ncc(C(F)(F)F)cc2Cl)CC1", "activation": "inactive: 2.65%"}, {"smiles": "Cc1ccc(S(=O)(=O)N2C[C@@H](C)[C@]3(C2)[C@H](O)[C@H](OC(=O)Nc2cccs2)C[C@H]2C(=O)N(c4ccccc4)C(=O)[C@H]23)cc1", "Potency": "inconclusive: 25.1 µM [activator, single point]"}, {"smiles": "Oc1ccc(/C(Cc2ccc3ccccc3n2)=N\\Nc2ccccc2)c(O)c1", "Potency": "inconclusive: 20 µM [activator, single point]"}, {"smiles": "CCOC(=O)c1ccccc1NC(=O)COC(=O)CSCC(=O)Nc1cc(C)on1", "activation": "inactive: 0.204%"}, {"smiles": "COC(=O)c1oc(-c2ccccc2)nc1C", "Potency": "active: 12.6 µM"}, {"smiles": "COc1cc(/C=N/N=C2/C(=O)Nc3ccccc32)ccc1O", "Potency": "inconclusive: 10 µM [activator, partial curve, poor fit]"}, {"smiles": "COc1cc2cnc(-c3ccccc3)cc2cc1OC", "Potency": "inconclusive: 12.6 µM [activator, partial curve]"}, {"smiles": "CC1CCC2C(=O)N(c3ccc(C(=O)Oc4cccc5cccnc45)cc3)C(=O)C2C1", "note": "(configuration not stated)", "Potency": "inconclusive: 11.2 µM [activator, single point]"}, {"smiles": "N=C(N)SCc1cn(-c2ccccc2)nc1-c1ccc(Br)cc1", "activation": "inactive: -2.36%"}, {"smiles": "COc1cc(Cl)ccc1OC1(C)CCN(Cc2ccc3ccccc3c2)C1", "note": "(configuration not stated)", "activation": "inactive: 7.64%"}, {"smiles": "Clc1ccc(-c2cn3ccccc3n2)cc1", "Potency": "inconclusive: 7.08 µM [activator, partial curve]"}, {"smiles": "c1coc(CNc2ncnc3ccccc23)c1", "Potency": "inconclusive: 8.91 µM [activator, partial curve]"}, {"smiles": "COc1cccc(C(=O)Nc2cccc(NC(=O)c3cccs3)c2)c1", "Potency": "inconclusive: 1.58 µM [activator, partial curve, poor fit]"}, {"smiles": "COC(=O)CNC(c1ccccc1Cl)c1cc(Br)ccc1NC(=O)CCN1CCOCC1", "note": "(configuration not stated)", "Potency": "inconclusive: 22.4 µM [activator, single point]"}, {"smiles": "Cc1cccc(COC[C@H](CC(C)C)N2CCN(C(=O)c3ccc(C(F)(F)F)cc3)CCC2=O)c1", "activation": "inactive: 4.29%"}, {"smiles": "COC(=O)/C=C/C(=O)N1CCN(c2ccccc2)CC1", "Potency": "inconclusive: 17.8 µM [activator, single point]"}, {"smiles": "COc1ccc2oc(=O)cc(CN3CCN(Cc4ccc(OC)c(OC)c4OC)CC3)c2c1", "activation": "inactive: -0.462%"}, {"smiles": "O=C(/C=C/c1ccccc1)NCC(=O)N/N=C/c1ccccc1[N+](=O)[O-]", "activation": "inactive: 9.88%"}, {"smiles": "COc1ccccc1NC(=O)CN(Cc1ccco1)C(=O)c1ccc(Cl)nc1", "Potency": "inconclusive: 28.2 µM [activator, partial curve, poor fit]"}, {"smiles": "CCCN1C(=O)C(=O)c2cc(C)ccc21", "activation": "inactive: -0.789%"}, {"smiles": "O=C(N/C(=C/c1cccc(Br)c1)c1nc(=S)[nH][nH]1)c1ccccc1", "Potency": "inconclusive: 15.8 µM [activator, single point]"}, {"smiles": "O=C(CCN1CCN(c2ccccc2F)CC1)c1ccc(Br)cc1", "Potency": "inconclusive: 22.4 µM [activator, single point]"}, {"smiles": "O=C(Nc1cc(C(F)(F)F)ccc1Cl)c1cc2nc3c(c(C(F)(F)F)n2n1)CCCC3", "Potency": "inconclusive: 11.2 µM [activator, single point]"}, {"smiles": "O=C(COc1cccc(C(F)(F)F)c1)NCC(c1ccco1)N1CCCC1", "note": "(configuration not stated)", "Potency": "inconclusive: 28.2 µM [activator, single point]"}, {"smiles": "O=C(c1ccccc1)c1cc(-c2ccccc2)on1", "Potency": "inconclusive: 15.8 µM [activator, single point]"}, {"smiles": "CCc1cc(C=C(Cl)Cl)oc(=O)c1C", "Potency": "active: 14.1 µM"}, {"smiles": "CCOC(=O)c1cc(=O)n2nc(-c3ccccc3F)nc2s1", "Potency": "inconclusive: 28.2 µM [activator, single point]"}, {"smiles": "Cc1sc(NC(=O)c2ccco2)c(CN2CCC(C)CC2)c1C", "Potency": "inconclusive: 10 µM [activator, partial curve, poor fit]"}, {"smiles": "Oc1ccc(Cl)cc1-c1cc(-c2ccco2)[nH]n1", "Potency": "inconclusive: 2.82 µM [activator, full curve, poor fit]"}, {"smiles": "COc1ccc(NC(=O)C23CCC(C)(C(=O)O2)C3(C)C)cc1", "note": "(configuration not stated)", "activation": "inactive: -0.755%"}, {"smiles": "O=C(N/N=C/c1ccsc1)c1ccc2ccccc2n1", "Potency": "inconclusive: 3.98 µM [activator, full curve]"}, {"smiles": "CCCc1nc2sc3c(c2c(=O)n1NC(=O)CCCl)CCCC3", "Potency": "inconclusive: 22.4 µM [activator, single point]"}, {"smiles": "Cc1cc(C)c2c(=O)cc(C(=O)Nc3ccc(S(=O)(=O)Nc4onc(C)c4C)cc3)oc2c1", "activation": "inactive: 3.34%"}]}]}
